{"source": "PubChem BioAssay AID1347417", "about": "(National Center for Advancing Translational Sciences (NCATS), 2020)", "note": "About 5,300 (4.4%) of roughly 120,000 compounds were called active. This list was built around the results that the source calls inconclusive (neither active nor inactive); the mix of calls is not that of the screen. Calls follow the shape of the dose curve; as a rule, active = well fitted inhibition curve with a large enough effect; inconclusive = small, poorly fitted or top-dose-only effect; inactive = no such curve, though single readings can be large or run the other way. Potencies of inconclusive entries are doubtful fits and often do not repeat. Potency is read from the fitted curve at half-maximal effect; tags tell the direction and shape of the fitted curve."}
{"assay": "qHTS Primary assay for Inhibitors of Plasmodium falciparum Dd2 growth in vitro; also: nearly all actives have a fitted effect of over 65% in size;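 as to activity, negative = inhibition: plate controls were DMSO vehicle for no effect and reference drug for full effect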", "details": "P. falciparum Dd2 growth, SYBR Green, 72 h; activity, negative = inhibition: at 28.9 µM (top of the series) unless noted; series mostly up to 28.9 µM", "how_it_was_run": "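Readout: SYBR Green fluorescence, 485 nm excitation, 535 nm emission, after ~16 h lysis at 37C. Before that, Dd2-infected red cells (2.5% hematocrit) grew 72 h with compound, 29 uM top final concentration.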"}
{"smiles": "CNC(=O)c1cccc(-c2cnc3[nH]cc(CC(=O)NC4CCC4)c3c2)c1", "outcome": "inactive [at 44.1 µM]"}
{"smiles": "O=C1Cc2cc(S(=O)(=O)Nc3ccc(OC(F)(F)F)cc3)cc3c2N1CCC3", "Potency": "inconclusive: 17.8 µM [inhibitor, single point]"}
{"smiles": "COc1ccc2[nH]c(=O)c(CCC(=O)N3CCN(CC(C)C)CC3)cc2c1", "Potency": "inconclusive: 7.94 µM [inhibitor, partial curve, poor fit]"}
{"smiles": "COC(=O)C1=C(C)N=C2SC=C(CC(=O)NCCc3ccccc3)N2C1c1cccc(OC)c1", "note": "(centres undefined)", "Potency": "inconclusive: 2.24 µM [inhibitor, partial curve]"}
{"smiles": "O=C(NCC1CCN(c2cc(-c3ccccc3)[nH]n2)CC1)c1n[nH]c2c1CCCC2", "Potency": "inconclusive: 5.62 µM [inhibitor, partial curve, poor fit]"}
{"smiles": "O=C(N[C@@H]1CCOC[C@H]1OCCO)c1cc(C2CC2)nc2ccccc12", "activity, negative = inhibition": "inactive: -4.41%"}
{"smiles": "CCOC(=O)C1=CN(CC(=O)Nc2ccccc2Cl)S(=O)(=O)N=C1C", "activity, negative = inhibition": "inactive: 91%"}
{"smiles": "O=C(NCc1ccc(F)cc1)NC1CCc2n[nH]c(=O)n2CC1", "note": "(centres undefined)", "activity, negative = inhibition": "inactive: 41.8%"}
{"smiles": "Cc1noc(C)c1C(=O)N1CC(c2nc(CCc3ccccc3)no2)C1", "activity, negative = inhibition": "inactive: -4.17%"}
{"smiles": "Cc1ccc(C)c(N2CCN(CCCNC(=O)c3ccc4nc(N5CCC(C)CC5)sc4c3)CC2)c1", "Potency": "inconclusive: 17.8 µM [inhibitor, single point]"}
{"smiles": "COc1cccc(C(=O)N2CC(Oc3ccccc3-c3nc(C4CC4)no3)C2)c1", "Potency": "inconclusive: 12.6 µM [inhibitor, single point]"}
{"smiles": "FC(F)(F)c1ccc2nc([C@H]3CCN(C4CCCCC4)C3)[nH]c2c1", "Potency": "active: 7.94 µM"}
{"smiles": "c1cncc(-c2nc(-c3ccc(OC4CNC4)cc3)no2)c1", "Potency": "active: 5.01 µM"}
{"smiles": "O=C(Cc1cccc(F)c1)N1CCC2(CC1)NCCc1c2[nH]c2ccccc12", "Potency": "inconclusive: 3.16 µM [inhibitor, single point]"}
{"smiles": "COc1cc2c(cc1OC)C(CC(=O)O)N(C(=O)Nc1cc(OC)c(OC)c(OC)c1)CC2", "note": "(centres undefined)", "outcome": "inactive"}
{"smiles": "CCC1(C)CC(=O)c2c(ccc3oc(C(=O)Nc4ccc(C(C)=O)cc4)c(C)c23)O1", "note": "(centres undefined)", "Potency": "inconclusive: 11.2 µM [inhibitor, single point]"}
{"smiles": "CC(C)c1ccc(Nc2sc(C(=O)c3ccccc3)c(N)c2S(=O)(=O)c2ccccc2)cc1", "Potency": "inconclusive: 10 µM [inhibitor, single point]"}
{"smiles": "COc1ccc(CNC(=O)c2cc3c(s2)CCN(C(=O)c2ccc(C)cc2)C3)cc1", "Potency": "inconclusive: 10 µM [inhibitor, partial curve, poor fit]"}
{"smiles": "CC(C)NC(=O)CN1C(=O)NC(c2ccc(Cl)cc2)C2=C1COC2=O", "note": "(centres undefined)", "Potency": "inconclusive: 3.98 µM [inhibitor, single point]"}
{"smiles": "COc1ccc(CCN(C)C(=O)CC(c2cccc(F)c2)c2cn(C)c3ccccc23)cc1OC", "note": "(centres undefined)", "Potency": "active: 2 µM"}
{"smiles": "O=C(Nc1ccccc1)C1CCCN(c2cnc3nccnc3c2)C1", "note": "(centres undefined)", "Potency": "inconclusive: 3.16 µM [inhibitor, single point]"}
{"smiles": "O=C(NCC1CN(Cc2cccnc2)CC12CN(c1ccccc1)C2)Nc1ccccc1", "note": "(centres undefined)", "Potency": "inconclusive: 3.55 µM [inhibitor, single point]"}
{"smiles": "O=C1Nc2ccc(-c3cccc(C(F)(F)F)c3)cc2C(=O)N2CCN(C(=O)c3cccs3)C[C@H]12", "Potency": "inconclusive: 11.2 µM [inhibitor, single point]"}
{"smiles": "COc1ccc(CNC(=O)c2cc3n(n2)CC(c2ccc(Cl)cc2)OC3)cc1OC", "note": "(centres undefined)", "Potency": "inconclusive: 12.6 µM [inhibitor, single point]"}
{"smiles": "O=C(CN1C(=O)COc2ccc(C(=O)COc3ccc(Cl)cc3F)cc21)NC1CCCCC1", "activity, negative = inhibition": "inactive: 5.45%"}
{"smiles": "Fc1ccc(OCCc2noc(C3CCCNC3)n2)cc1", "note": "(centres undefined)", "Potency": "inconclusive: 3.55 µM [inhibitor, single point]"}
{"smiles": "CCC(NC(=O)c1cc(OC)ccc1OC1CCN(C(C)=O)CC1)c1ccncc1", "note": "(centres undefined)", "activity, negative = inhibition": "inactive: 6.03%"}
{"smiles": "Cc1nn(C)c(C)c1CCC(=O)N1C[C@@H](Oc2ccccc2)C[C@H]1C(=O)NC1CC1", "activity, negative = inhibition": "inactive: 14.9%"}
{"smiles": "COc1ccc(NC(=O)Cn2c(-c3cccc(Cl)c3)nc(C)c(CCO)c2=O)cc1OC", "Potency": "inconclusive: 17.8 µM [inhibitor, single point]"}
{"smiles": "COc1ccc(C2(C(=O)NCc3cc(F)cc(F)c3)CCOCC2)cc1", "activity, negative = inhibition": "inactive: 3.35%"}
{"smiles": "Cn1ncc2c(-c3ccc(Cl)cc3Cl)cc(C(=O)N3CCN(c4ncccn4)CC3)nc21", "activity, negative = inhibition": "inconclusive: -52% [inhibitor]"}
{"smiles": "CN1CCN(CCCNC(=O)c2c(OCC3CC3)cc(=O)n3c2CCCCC3)CC1", "activity, negative = inhibition": "inactive: 52.9%"}
{"smiles": "CCOC(=O)c1ccccc1NC(=O)COc1ccccc1-c1nnc(-c2ccccc2)o1", "Potency": "inconclusive: 0.0079 µM [inhibitor, full curve, poor fit]"}
{"smiles": "FC(F)(F)CN1C2CCC1CN(c1nnc(Cl)c3ccccc13)C2", "Potency": "active: 0.708 µM"}
{"smiles": "Cc1ccc(CNC(=O)C2(c3ccc(NC(=O)C4CC4)cc3)CCC2)cc1", "activity, negative = inhibition": "inactive: -5.96%"}
{"smiles": "CCC(CC)C(=O)N1CCC2(CC1)C(=O)N(CC)c1ccccc12", "Potency": "inconclusive: 7.94 µM [inhibitor, single point]"}
{"smiles": "Cc1ccccc1Cn1cc(-c2ccncc2)cc1C(=O)N1CCCC(C)C1", "note": "(centres undefined)", "Potency": "active: 10 µM"}
{"smiles": "Cc1nc(N2CCC(NC(=O)c3ccc[nH]3)CC2)cc(C(F)(F)F)n1", "Potency": "inconclusive: 17.8 µM [inhibitor, single point]"}
{"smiles": "Cc1ncccc1OC1(C(=O)NCc2n[nH]c3c2CCC3)CCNCC1", "activity, negative = inhibition": "inactive: 8.09%"}
{"smiles": "c1ccc(O[C@H]2COCCN(Cc3ccc(-c4ccccc4)cc3)C2)cc1", "Potency": "inconclusive: 11.2 µM [inhibitor, partial curve, poor fit]"}
{"smiles": "COCC(=O)NC1CCCc2c1[nH]c1ccc(F)cc21", "note": "(centres undefined)", "activity, negative = inhibition": "inactive: -14.4%"}
{"smiles": "Cc1ccc(CC(=O)N2CCC(c3n[nH]c(=O)n3Cc3ccc(F)cc3)CC2)cc1", "Potency": "inconclusive: 6.31 µM [inhibitor, single point]"}
{"smiles": "Cc1c(C(=O)Nc2cccc(-c3nc4ccccc4s3)c2)oc2ccccc12", "Potency": "inconclusive: 0.398 µM [inhibitor, partial curve, poor fit]"}
{"smiles": "CCOc1ccc2nc(N3CCCC(C(=O)Nc4cc(Cl)c(OC)cc4OC)C3)sc2c1", "note": "(centres undefined)", "Potency": "inconclusive: 20 µM [inhibitor, single point]"}
